# Test results taken from the supplement of paper PMC8728848.
# This is one part of the list.
# B1: Epa22 (Candida glabrata) (protein)
# chain: MGSSHHHHHHSSGLVPRGSHMKRALSSQNPFGYPIGCSPQSTNVIPGLTMELYSYPIVSGTPPNCYDASYVDPEYPRTGYLKRKMIGKSTGVTGSLNYKFSVEKACMVKYGNLPAGYNYNEPLTVSNFTMLLYGYFKPQTSGIHTFFVNADDLLYINFGAGNAFDCCKREDSKFKLGEYVAYDIWHVDSSKNKVSLNLEKDVYYPIRMFFNNIGKDSSLDLSFSVNGAVEHITDFSGYLYSVPDQPDACPAPIGYDTTCK
# Legend:
# Test in all cases: glycan array binding signal (z-score within array); higher = stronger binding
# Settings in all cases: glycan notation: IUPAC condensed, linker removed
# [1] = molecular target: Fuc(a1-2)Gal6S(b1-3)GlcNAc6S
# Procedure, shortened: (§1)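 Glycan array binding is given as a within-array Z-score, which can be read as non-binding when negative. The arrays, 3228 of them, came from the Consortium for Functional Glycomics database and were retained only where the protein sequence was available. Z-scores were averaged across arrays of the same protein sequence at different concentrations or buffers and across linkers.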
# Fuc(a1-2)Gal6S(b1-4)Glc = molecular target: Fuc(a1-2)Gal6S(b1-4)Glc
# Procedure, shortened: as §1
# [2] = molecular target: Fuc(a1-2)Gal6S(b1-4)Glc6S
# Procedure, shortened: as §1
# Fuc(a1-2)[Gal(a1-3)]Gal = molecular target: Fuc(a1-2)[Gal(a1-3)]Gal
# Procedure, shortened: as §1
# [3] = molecular target: Fuc(a1-2)[Gal(a1-3)]Gal(b1-3)GalNAc
# Procedure, shortened: as §1
# [4] = molecular target: Fuc(a1-2)[Gal(a1-3)]Gal(b1-3)GalNAc(b1-3)Gal(a1-4)Gal(b1-4)Glc
# Procedure, shortened: as §1
# [5] = molecular target: Fuc(a1-2)[Gal(a1-3)]Gal(b1-3)GlcNAc
# Procedure, shortened: as §1
# [6] = molecular target: Fuc(a1-2)[Gal(a1-3)]Gal(b1-3)GlcNAc(b1-2)Man(a1-3)[Fuc(a1-2)[Gal(a1-3)]Gal(b1-3)GlcNAc(b1-2)Man(a1-6)]Man(b1-4)GlcNAc(b1-4)GlcNAc
# Procedure, shortened: as §1
# [7] = molecular target: Fuc(a1-2)[Gal(a1-3)]Gal(b1-3)GlcNAc(b1-2)Man(a1-3)[Fuc(a1-2)[Gal(a1-3)]Gal(b1-3)GlcNAc(b1-2)Man(a1-6)]Man(b1-4)GlcNAc(b1-4)[Fuc(a1-6)]GlcNAc
# Procedure, shortened: as §1
# [8] = molecular target: Fuc(a1-2)[Gal(a1-3)]Gal(b1-3)GlcNAc(b1-3)GalNAc
# Procedure, shortened: as §1
# [9] = molecular target: Fuc(a1-2)[Gal(a1-3)]Gal(b1-3)GlcNAc(b1-6)GalNAc
# Procedure, shortened: as §1
# [10] = molecular target: Fuc(a1-2)[Gal(a1-3)]Gal(b1-4)Glc
# Procedure, shortened: as §1
# [11] = molecular target: Fuc(a1-2)[Gal(a1-3)]Gal(b1-4)GlcNAc
# Procedure, shortened: as §1
# [12] = molecular target: Fuc(a1-2)[Gal(a1-3)]Gal(b1-4)GlcNAc(b1-2)Man
# Procedure, shortened: as §1
# [13] = molecular target: Fuc(a1-2)[Gal(a1-3)]Gal(b1-4)GlcNAc(b1-2)Man(a1-3)[Fuc(a1-2)[Gal(a1-3)]Gal(b1-4)GlcNAc(b1-2)Man(a1-6)]Man(b1-4)GlcNAc(b1-4)GlcNAc
# Procedure, shortened: as §1
# [14] = molecular target: Fuc(a1-2)[Gal(a1-3)]Gal(b1-4)GlcNAc(b1-2)Man(a1-3)[Fuc(a1-2)[Gal(a1-3)]Gal(b1-4)GlcNAc(b1-2)Man(a1-6)]Man(b1-4)GlcNAc(b1-4)[Fuc(a1-6)]GlcNAc
# Procedure, shortened: as §1
# [15] = molecular target: Fuc(a1-2)[Gal(a1-3)]Gal(b1-4)GlcNAc(b1-3)GalNAc
# Procedure, shortened: as §1
# [16] = molecular target: Fuc(a1-2)[Gal(a1-3)]Gal(b1-4)GlcNAc(b1-3)[Fuc(a1-2)[Gal(a1-3)]Gal(b1-4)GlcNAc(b1-6)]GalNAc
# Procedure, shortened: as §1
# [17] = molecular target: Fuc(a1-2)[Gal(a1-3)]Gal(b1-4)GlcNAc(b1-6)GalNAc
# Procedure, shortened: as §1
# [18] = molecular target: Fuc(a1-2)[Gal(a1-3)]Gal(b1-4)[Fuc(a1-3)]Glc
# Procedure, shortened: as §1
# [19] = molecular target: Fuc(a1-2)[Gal(a1-3)]Gal(b1-4)[Fuc(a1-3)]GlcNAc
# Procedure, shortened: as §1
# [20] = molecular target: Fuc(a1-2)[Gal(a1-3)]Gal(b1-4)[Fuc(a1-3)]GlcNAc(b1-3)GalNAc
# Procedure, shortened: as §1
# [21] = molecular target: Fuc(a1-2)[Gal(a1-4)]Gal(b1-4)GlcNAc
# Procedure, shortened: as §1
# [22] = molecular target: Fuc(a1-2)[GalNAc(a1-3)]Gal
# Procedure, shortened: as §1
# [23] = molecular target: Fuc(a1-2)[GalNAc(a1-3)]Gal(b1-3)GalNAc(a1-3)[Fuc(a1-2)]Gal(b1-4)GlcNAc
# Procedure, shortened: as §1
# [24] = molecular target: Fuc(a1-2)[GalNAc(a1-3)]Gal(b1-3)GalNAc(b1-3)Gal(a1-4)Gal(b1-4)Glc
# Procedure, shortened: as §1
# [25] = molecular target: Fuc(a1-2)[GalNAc(a1-3)]Gal(b1-3)GlcNAc
# Procedure, shortened: as §1
# [26] = molecular target: Fuc(a1-2)[GalNAc(a1-3)]Gal(b1-3)GlcNAc(b1-2)Man(a1-3)[Fuc(a1-2)[GalNAc(a1-3)]Gal(b1-3)GlcNAc(b1-2)Man(a1-6)]Man(b1-4)GlcNAc(b1-4)GlcNAc
# Procedure, shortened: as §1
# [27] = molecular target: Fuc(a1-2)[GalNAc(a1-3)]Gal(b1-3)GlcNAc(b1-2)Man(a1-3)[Fuc(a1-2)[GalNAc(a1-3)]Gal(b1-3)GlcNAc(b1-2)Man(a1-6)]Man(b1-4)GlcNAc(b1-4)[Fuc(a1-6)]GlcNAc
# Procedure, shortened: as §1
# [28] = molecular target: Fuc(a1-2)[GalNAc(a1-3)]Gal(b1-3)GlcNAc(b1-3)GalNAc
# Procedure, shortened: as §1
# [29] = molecular target: Fuc(a1-2)[GalNAc(a1-3)]Gal(b1-3)GlcNAc(b1-6)GalNAc
# Procedure, shortened: as §1
# [30] = molecular target: Fuc(a1-2)[GalNAc(a1-3)]Gal(b1-4)Glc
# Procedure, shortened: as §1
# [31] = molecular target: Fuc(a1-2)[GalNAc(a1-3)]Gal(b1-4)GlcNAc
# Procedure, shortened: as §1
# [32] = molecular target: Fuc(a1-2)[GalNAc(a1-3)]Gal(b1-4)GlcNAc(b1-2)Man
# Procedure, shortened: as §1
# [33] = molecular target: Fuc(a1-2)[GalNAc(a1-3)]Gal(b1-4)GlcNAc(b1-2)Man(a1-3)[Fuc(a1-2)[GalNAc(a1-3)]Gal(b1-4)GlcNAc(b1-2)Man(a1-6)]Man(b1-4)GlcNAc(b1-4)GlcNAc
# Procedure, shortened: as §1
# [34] = molecular target: Fuc(a1-2)[GalNAc(a1-3)]Gal(b1-4)GlcNAc(b1-2)Man(a1-3)[Fuc(a1-2)[GalNAc(a1-3)]Gal(b1-4)GlcNAc(b1-2)Man(a1-6)]Man(b1-4)GlcNAc(b1-4)[Fuc(a1-6)]GlcNAc
# Procedure, shortened: as §1
# [35] = molecular target: Fuc(a1-2)[GalNAc(a1-3)]Gal(b1-4)GlcNAc(b1-3)Gal(b1-4)GlcNAc
# Procedure, shortened: as §1
# [36] = molecular target: Fuc(a1-2)[GalNAc(a1-3)]Gal(b1-4)GlcNAc(b1-3)Gal(b1-4)GlcNAc(b1-3)Gal(b1-4)GlcNAc
# Procedure, shortened: as §1
# [37] = molecular target: Fuc(a1-2)[GalNAc(a1-3)]Gal(b1-4)GlcNAc(b1-3)GalNAc
# Procedure, shortened: as §1
# [38] = molecular target: Fuc(a1-2)[GalNAc(a1-3)]Gal(b1-4)GlcNAc(b1-3)[Fuc(a1-2)[GalNAc(a1-3)]Gal(b1-4)GlcNAc(b1-6)]GalNAc
# Procedure, shortened: as §1
# [39] = molecular target: Fuc(a1-2)[GalNAc(a1-3)]Gal(b1-4)GlcNAc(b1-6)GalNAc
# Procedure, shortened: as §1
# [40] = molecular target: Fuc(a1-2)[GalNAc(a1-3)]Gal(b1-4)[Fuc(a1-3)]GlcNAc
# Procedure, shortened: as §1
# [41] = molecular target: Fuc(a1-2)[GalNAc(a1-3)]Gal(b1-4)[Fuc(a1-3)]GlcNAc(b1-3)GalNAc
# Procedure, shortened: as §1
# [42] = molecular target: Fuc(a1-2)[GalNAc(a1-4)]Gal(b1-4)GlcNAc
# Procedure, shortened: as §1
# [43] = molecular target: Fuc(a1-2)[GalNAc(b1-3)]Gal
# Procedure, shortened: as §1
binder,measurement,setting,value
B1,glycan array binding signal (z-score),[1],5.1
same,glycan array binding signal (z-score),Fuc(a1-2)Gal6S(b1-4)Glc,-0.247
same,glycan array binding signal (z-score),[2],0.413
same,glycan array binding signal (z-score),Fuc(a1-2)[Gal(a1-3)]Gal,1.56
same,glycan array binding signal (z-score),[3],0.068
same,glycan array binding signal (z-score),[4],-0.365
same,glycan array binding signal (z-score),[5],0.017
same,glycan array binding signal (z-score),[6],-0.321
same,glycan array binding signal (z-score),[7],-0.366
same,glycan array binding signal (z-score),[8],-0.245
same,glycan array binding signal (z-score),[9],0.015
same,glycan array binding signal (z-score),[10],0.499
same,glycan array binding signal (z-score),[11],0.705
same,glycan array binding signal (z-score),[12],-0.195
same,glycan array binding signal (z-score),[13],-0.356
same,glycan array binding signal (z-score),[14],-0.258
same,glycan array binding signal (z-score),[15],-0.097
same,glycan array binding signal (z-score),[16],-0.034
same,glycan array binding signal (z-score),[17],-0.268
same,glycan array binding signal (z-score),[18],-0.313
same,glycan array binding signal (z-score),[19],-0.339
same,glycan array binding signal (z-score),[20],-0.345
same,glycan array binding signal (z-score),[21],4.5
same,glycan array binding signal (z-score),[22],-0.415
same,glycan array binding signal (z-score),[23],-0.315
same,glycan array binding signal (z-score),[24],-0.327
same,glycan array binding signal (z-score),[25],-0.344
same,glycan array binding signal (z-score),[26],-0.402
same,glycan array binding signal (z-score),[27],-0.383
same,glycan array binding signal (z-score),[28],-0.386
same,glycan array binding signal (z-score),[29],-0.371
same,glycan array binding signal (z-score),[30],-0.357
same,glycan array binding signal (z-score),[31],-0.4
same,glycan array binding signal (z-score),[32],-0.359
same,glycan array binding signal (z-score),[33],-0.338
same,glycan array binding signal (z-score),[34],-0.382
same,glycan array binding signal (z-score),[35],-0.308
same,glycan array binding signal (z-score),[36],-0.366
same,glycan array binding signal (z-score),[37],-0.399
same,glycan array binding signal (z-score),[38],-0.342
same,glycan array binding signal (z-score),[39],-0.16
same,glycan array binding signal (z-score),[40],-0.306
same,glycan array binding signal (z-score),[41],-0.315
same,glycan array binding signal (z-score),[42],-0.293
same,glycan array binding signal (z-score),[43],-0.369
